In patent publication US20250281632A1, “LGALS3BP ANTIBODY-DRUG-CONJUGATE AND ITS USE FOR THE TREATMENT OF CANCER” (MEDIAPHARMA S.R.L., priority 2018, published 2025):

How the values were obtained:
[1] = system: SKNAS and Kelly neuroblastoma cells; test: Experimental metastasis assay in neuroblastoma cell models; format: in vivo, NSG mice; details: 10 mg/kg i.v., 4 injections twice weekly, started 14 days after cell injection
Protocol: Schematic representation of experimental metastasis assays (A) performed in SKNAS (B) and Kelly (C) neuroblastoma cell models. Eight-weeks old NSG mice were injected in the tail vein with neuroblastoma cells, the intravenous treatments (1959-sss/DM3 or free DM3 at the indicated doses, PBS as control) were started after 14 days from the injection for 4 injections twice weekly. After 28 days, mice were sacrificed, and organs (liver, kidney, lung and bone marrow) were processed for metastasis analysis. Liver, kidney and lung were harvested, fixed in 10% neutral buffered formalin, paraffin embedded, sectioned and stained with Hematoxylin and Eosin. All neuroblastoma metastatic lesions were analyzed and plotted on graphs (above). Representative images are shown (below). As regards bone marrow analysis, femora and tibiae were cut out from mice after sacrifice, soft tissue were accurately removed and bone marrow cells suspension was collected into a tube by flushing the shaft with 1 ml of cold PBS using a 1 ml syringe with needle. Bone marrow cells were resuspended and washed several times, then cells were stained with an anti-human-GD2 followed by fluorescent secondary antibody for flow cytometry analysis. Percentage of GD2 positive cells is shown in the dot plot.

LGALS3BP [2] = biological target: T1, LGALS3BP (Homo sapiens, UniProt Q08380); test: ELISA binding to plate-coated human recombinant LGALS3BP; details: LGALS3BP coated at 2 μg/ml, read at 492 nm (FIG. 11)
T1 sequence (Q08380 19-585): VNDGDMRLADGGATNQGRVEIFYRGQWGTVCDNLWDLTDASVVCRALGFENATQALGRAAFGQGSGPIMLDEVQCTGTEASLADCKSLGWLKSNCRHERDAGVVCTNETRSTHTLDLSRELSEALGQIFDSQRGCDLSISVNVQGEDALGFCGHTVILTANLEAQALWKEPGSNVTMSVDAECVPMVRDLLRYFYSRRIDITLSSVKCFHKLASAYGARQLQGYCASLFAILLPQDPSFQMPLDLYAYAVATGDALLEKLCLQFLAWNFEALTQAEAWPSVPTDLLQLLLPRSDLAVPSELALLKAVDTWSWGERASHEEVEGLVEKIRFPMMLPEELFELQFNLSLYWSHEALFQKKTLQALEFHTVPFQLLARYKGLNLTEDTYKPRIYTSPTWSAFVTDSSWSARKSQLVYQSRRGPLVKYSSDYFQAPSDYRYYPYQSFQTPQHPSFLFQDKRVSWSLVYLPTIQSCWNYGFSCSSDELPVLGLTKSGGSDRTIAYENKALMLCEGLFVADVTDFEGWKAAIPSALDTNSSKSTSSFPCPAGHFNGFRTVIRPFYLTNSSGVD
Protocol: Human recombinant LGALS3BP (2 μg/ml) was pre-coated overnight at 4° C. on 96 well-plates NUNC Maxisorp modules. After blocking with 1% BSA in PBS containing 0.1% Tween-20 for 1 hour at room temperature, unconjugated 1959-sss antibody or 1959-sss-DM3 was added and incubated at the indicated concentration for 2 hours at room temperature. After several washes with PBS-0, 1% Tween-20, anti-human IgG-HRP was added and incubated for 1 hour at room temperature. After washes, stabilized chromogen was added for at least 10 minutes in the dark, before stopping the reaction with the addition of 1 N H2SO4. The resulting color was read at 492 nm with an Elisa reader.

[3] = system: SKNAS cells (LGALS3BP-positive) derived xenograft; test: SKNAS (LGALS3BP-positive) neuroblastoma xenograft model; format: in vivo, mice
Protocol: (§1) A) SKNAS cells (LGALS3BP-positive) and hNB cells (LGALS3BP-negative) derived xenograft models were generated by subcutaneous injection into the right flank of mice of 3×10^6 of cells in 200 μl of PBS. When xenografts became palpable, animals were divided into 2 groups in a way to provide a similar range of tumor size for each group. The treated group received 4 intravenous injections twice weekly of 1959-sss/DM3 (10 mg/kg) whereas the control group received PBS only. Tumor volume was monitored every week by a caliper and calculated by the following formula: tumor volume (mm^3)=(length×width^2)/2. A tumor volume of 2 cm^3 was chosen as endpoint for both experiments after which mice were sacrificed. Survival curves were derived from Kaplan-Meier estimates and compared by log-rank test (GraphPad Prism 5). B) 1959-sss/DM3 accumulation in tumour tissues was evaluated by immunofluorescence analysis of SKNAS and hNB tumour xenografts. Animals bearing tumours received a single injection of 1959-sss/DM3 at the dose of 10 mg/kg and thereafter animals were sacrificed 72 h later. Fresh tumour tissues were frozen in a cryo-embedding medium and cryostat sections were stained with anti CD31/CD105 antibodies (red) to visualize blood vessels; cells nuclei were stained by DRAQ5 (blue). Scale bars: 50 μm.

LGALS3BP [4] = biological target: T1, LGALS3BP; test: Confocal immunofluorescence staining of human tumor cell lines and normal fibroblasts; format: cell-based; design: endogenous in cells; host or cells: A3: MDA-MB-231, A375, FADU, HBF normal bronchial fibroblasts; A5: neuroblastoma lines Kelly, SKNAS, hNB; details: MDA-MB-231, A375, FADU tumor cells vs HBF normal bronchial fibroblasts; 2 hours incubation (FIG. 12)
Protocol: Human tumor cells were grown on glass coverslips for 24 hours. Coverslips were incubated for 2 hours at room temperature with 1959-sss or 1959-sss-DM3 3. At the end of incubation, cells were fixed in 4% paraformaldehyde for 15 minutes at room temperature, permeabilized with 0.25% Triton X-100 for 5 minutes, and blocked with 0.1% BSA for 1 hour at room temperature. Coverslips were then incubated with anti-human IgG-Alexa Fluor 488 conjugated. DRAQ5 was used to visualize nuclei. Images were acquired with a Zeiss LSM 510 meta-confocal microscopy using 488- and 633-nm lasers. • A, C, E, G, unconjugated 1959-sss; B, D, F, H, 1959-sss-DM3. • A-B; MDA-MB-231 breast cancer; C-D, A375 melanoma; E-F, FADU, H&N cancer; G-H, HBF, normal bronchial fibroblasts.

[5] = Single i.v. injection safety observation in cross-breed rabbits; format: in vivo; details: 5 mg/Hg single i.v. injection, observation until day 7
Text: The 1959-sss-DM3 ADC of the present invention and the pharmaceutical composition containing this 1959-sss-DM3 ADC have an excellent safety profile.

[6] = Pharmacokinetics in mouse serum (total antibody by sandwich ELISA); format: in vivo, Athymic CD-1 nu/nu mice; details: single i.v. dose 10 mg/kg
Protocol: Non-tumour bearing Athymic CD-1 nu/nu mice were injected intravenously with a single dose of 1959-sss/DM3 (10 mg/kg) and blood samples collected at different time points thereafter. Serum concentrations of total antibody were measured by sandwich ELISA using as capture antigen recombinant LGALS3BP and goat anti-human IgG-HRP for detection. Half-time (t1/2) and AUC values were obtained by Kinetica 5.0 software.

[7] = system: hNB cells (LGALS3BP-negative) derived xenograft; test: hNB (LGALS3BP-negative) neuroblastoma xenograft model; format: in vivo, mice
Protocol: as §1

A375 melanoma xenografts = test: Human A375 melanoma xenograft model in nude mice; format: in vivo, CD-1 nu/nu mice; details: for CR (not palpable tumor), number of mice / Cut off (TV about 1.5 cm^3), number of mice / survival vs control mice: 5 injections; for CR (not palpable tumor), number of mice / Cut off (TV about 1.5 cm^3), number of mice: at 140 days from start of treatment; for therapeutic activity (tumor growth): Example 14: 10 mg/kg i.v. daily for 5 days, 1959-sss DM3 vs control P<0.00001 (FIG. 14)
Protocol: Human melanoma xenografts were established by injecting subcutaneously 5×10^6 A375 cells in 5-6 week old CD-1 nu/nu mice nude mice. When the average tumor size within a group was approximately 100 mm^3, mice were divided into four groups in a manner to provide a similar range of tumor size in each group. The groups were treated with PBS (control), unconjugated 1959-sss antibody (10 mg/kg), 1959-sss-DM1 (10 mg/kg), or 1959-sss-DM3 (10 mg/kg). Treatments were administered by intravenous injection daily for 5 days (arrows). Tumor volumes were calculated according to the following formula: tumor volume=(length*width^2)/2. Tumor volumes were monitored every week. A, tumor growth curves. The data represent mean tumor volume (±SEM), n=5 or 6 mice/group. B, body weight of mice groups shown in panel A.
A, growth of subcutaneously implanted human A375 melanoma xenografts in nude mice treated with PBS (control), 1959-sss-DM3 (10 mg/kg) daily or twice a week (t/w) for a total of 5 injections, or 1959-sss-DM4 (10 mg/Kg) t/w for a total of 5 injections. The data represent mean tumor_volume (±SEM), n=5 or 6 mice/group. B, Kaplan-Meyer plot showing survival of the treatment groups shown in panel A.
Growth of subcutaneously implanted human A375 melanoma xenografts in nude mice treated with PBS (control), or 1959-sss-DM3 at 10, 3 or 1 mg/Kg t/w for a total of 5 injections.

B1: 1959-sss-DM3 (conjugate)
heavy: QVQLQESGPGLVKPSETLSLTCAVSGYSISSGYYWTWIRQPPGKGLEWIGYITYDGKNNYSPSLKNRVTISVDTSKNQFSLKLSSVTAADTAVYYCAREGSSVITTGFTFWGQGTLVTVSSASTKGPSVFPLAPSSKSTSGGTAALGCLVKDYFPEPVTVSWNSGALTSGVHTFPAVLQSSGLYSLSSVVTVPSSSLGTQTYICNVNHKPSNTKVDKKV[human IgG1 Fc with changes not written out]
light: DIQMTQSPSTLSASVGDRVTITCSASSRVSYMYWYQQKPGKAPKLLIYLTSNLASGVPARFSGSGSGTEFTLTISSLQPDDFATYYCQQWTSHPPTFGQGTKVEVKRTVAAPSVFIFPPSDEQLKSGTASVVCLLNNFYPREAKVQWKVDNALQSGNSQESVTEQDSKDSTYSLSSTLTLSKADYEKHKVYACEVTHQGLSSPVTKSFNRGEC
- formation of neuroblastoma metastatic lesions [1]: potently inhibits formation of neuroblastoma metastatic lesions
- binding behaviour to LGALS3BP (LGALS3BP [2]): same binding behaviour
- accumulation in tumor tissue (immunofluorescence) ([3]; LGALS3BP-positive tumor, 72 hours after single i.v. injection of 10 mg/kg): shows accumulation
- tumor shrinkage ([3]; LGALS3BP-positive xenografts, 10 mg/kg i.v., 4 injections twice weekly): induces shrinkage
- staining at the cell membrane (LGALS3BP [4]): staining at the cell membrane of human tumor cells, but not normal cells
- toxicity findings [5]: no toxicity findings were observed
- Half-time (t1/2) [6]: around 97.9 hours
- accumulation in tumor tissue (immunofluorescence) ([7]; LGALS3BP-negative tumor, 72 hours after single i.v. injection of 10 mg/kg): but not LGALS3BP-negative tumor tissues shows accumulation
- tumor shrinkage ([7]; LGALS3BP-negative xenografts, 10 mg/kg i.v., 4 injections twice weekly): induces shrinkage in LGALS3BP-positive but not negative
- CR (not palpable tumor), number of mice (A375 melanoma xenografts; 10 mg/kg daily): 0
- Cut off (TV about 1.5 cm^3), number of mice (A375 melanoma xenografts; 10 mg/kg daily): 5/6
- CR (not palpable tumor), number of mice (A375 melanoma xenografts; 10 mg/kg t/w): 5/6
- Cut off (TV about 1.5 cm^3), number of mice (A375 melanoma xenografts; 10 mg/kg t/w): 1/6
- therapeutic activity (tumor growth) (A375 melanoma xenografts): significantly inhibited tumor growth
- survival vs control mice (A375 melanoma xenografts; Example 15: 10 mg/kg daily, vs control P<0.0001): survived longer than control mice
- survival vs control mice (A375 melanoma xenografts; Example 15: 10 mg/kg twice a week (t/w), vs control P<0.00001): survived longer than control mice
- inhibition of tumor growth (A375 melanoma xenografts; Example 15: 10 mg/kg, total of 5 injections (DM3 daily or t/w, DM4 t/w) (FIG. 15)): significant inhibition of tumor growth

B2: 1959-sss (antibody)
heavy: QVQLQESGPGLVKPSETLSLTCAVSGYSISSGYYWTWIRQPPGKGLEWIGYITYDGKNNYSPSLKNRVTISVDTSKNQFSLKLSSVTAADTAVYYCAREGSSVITTGFTFWGQGTLVTVSSASTKGPSVFPLAPSSKSTSGGTAALGCLVKDYFPEPVTVSWNSGALTSGVHTFPAVLQSSGLYSLSSVVTVPSSSLGTQTYICNVNHKPSNTKVDKKV[human IgG1 Fc with changes not written out]
light: B1 light
- binding behaviour to LGALS3BP (LGALS3BP [2]): same binding behaviour
- staining at the cell membrane (LGALS3BP [4]): staining at the cell membrane of human tumor cells, but not normal cells
- therapeutic activity (tumor growth) (A375 melanoma xenografts): no therapeutic activity
